{"source": "PubChem BioAssay AID504333", "about": "(National Center for Advancing Translational Sciences (NCATS), 2011)", "note": "The campaign covered roughly 360,000 compounds. About 16,000 (4.4%) were called active. Inconclusive results, whose numbers are uncertain, are shown with a selection of clear calls. Calls follow the shape of the dose curve; as a rule, active = well fitted inhibition curve with a large enough effect; inconclusive = small, poorly fitted or top-dose-only effect; inactive = no such curve, though single readings can be large or run the other way. A potency beside an inconclusive call is a rough fit, not a confirmed value."}
{"molecular_target": "Bromodomain adjacent to zinc finger domain protein 2B (Homo sapiens) (UniProt Q9UIF8)", "sequence (Q9UIF8 whole entry, looked up, the tested form may be a part)": "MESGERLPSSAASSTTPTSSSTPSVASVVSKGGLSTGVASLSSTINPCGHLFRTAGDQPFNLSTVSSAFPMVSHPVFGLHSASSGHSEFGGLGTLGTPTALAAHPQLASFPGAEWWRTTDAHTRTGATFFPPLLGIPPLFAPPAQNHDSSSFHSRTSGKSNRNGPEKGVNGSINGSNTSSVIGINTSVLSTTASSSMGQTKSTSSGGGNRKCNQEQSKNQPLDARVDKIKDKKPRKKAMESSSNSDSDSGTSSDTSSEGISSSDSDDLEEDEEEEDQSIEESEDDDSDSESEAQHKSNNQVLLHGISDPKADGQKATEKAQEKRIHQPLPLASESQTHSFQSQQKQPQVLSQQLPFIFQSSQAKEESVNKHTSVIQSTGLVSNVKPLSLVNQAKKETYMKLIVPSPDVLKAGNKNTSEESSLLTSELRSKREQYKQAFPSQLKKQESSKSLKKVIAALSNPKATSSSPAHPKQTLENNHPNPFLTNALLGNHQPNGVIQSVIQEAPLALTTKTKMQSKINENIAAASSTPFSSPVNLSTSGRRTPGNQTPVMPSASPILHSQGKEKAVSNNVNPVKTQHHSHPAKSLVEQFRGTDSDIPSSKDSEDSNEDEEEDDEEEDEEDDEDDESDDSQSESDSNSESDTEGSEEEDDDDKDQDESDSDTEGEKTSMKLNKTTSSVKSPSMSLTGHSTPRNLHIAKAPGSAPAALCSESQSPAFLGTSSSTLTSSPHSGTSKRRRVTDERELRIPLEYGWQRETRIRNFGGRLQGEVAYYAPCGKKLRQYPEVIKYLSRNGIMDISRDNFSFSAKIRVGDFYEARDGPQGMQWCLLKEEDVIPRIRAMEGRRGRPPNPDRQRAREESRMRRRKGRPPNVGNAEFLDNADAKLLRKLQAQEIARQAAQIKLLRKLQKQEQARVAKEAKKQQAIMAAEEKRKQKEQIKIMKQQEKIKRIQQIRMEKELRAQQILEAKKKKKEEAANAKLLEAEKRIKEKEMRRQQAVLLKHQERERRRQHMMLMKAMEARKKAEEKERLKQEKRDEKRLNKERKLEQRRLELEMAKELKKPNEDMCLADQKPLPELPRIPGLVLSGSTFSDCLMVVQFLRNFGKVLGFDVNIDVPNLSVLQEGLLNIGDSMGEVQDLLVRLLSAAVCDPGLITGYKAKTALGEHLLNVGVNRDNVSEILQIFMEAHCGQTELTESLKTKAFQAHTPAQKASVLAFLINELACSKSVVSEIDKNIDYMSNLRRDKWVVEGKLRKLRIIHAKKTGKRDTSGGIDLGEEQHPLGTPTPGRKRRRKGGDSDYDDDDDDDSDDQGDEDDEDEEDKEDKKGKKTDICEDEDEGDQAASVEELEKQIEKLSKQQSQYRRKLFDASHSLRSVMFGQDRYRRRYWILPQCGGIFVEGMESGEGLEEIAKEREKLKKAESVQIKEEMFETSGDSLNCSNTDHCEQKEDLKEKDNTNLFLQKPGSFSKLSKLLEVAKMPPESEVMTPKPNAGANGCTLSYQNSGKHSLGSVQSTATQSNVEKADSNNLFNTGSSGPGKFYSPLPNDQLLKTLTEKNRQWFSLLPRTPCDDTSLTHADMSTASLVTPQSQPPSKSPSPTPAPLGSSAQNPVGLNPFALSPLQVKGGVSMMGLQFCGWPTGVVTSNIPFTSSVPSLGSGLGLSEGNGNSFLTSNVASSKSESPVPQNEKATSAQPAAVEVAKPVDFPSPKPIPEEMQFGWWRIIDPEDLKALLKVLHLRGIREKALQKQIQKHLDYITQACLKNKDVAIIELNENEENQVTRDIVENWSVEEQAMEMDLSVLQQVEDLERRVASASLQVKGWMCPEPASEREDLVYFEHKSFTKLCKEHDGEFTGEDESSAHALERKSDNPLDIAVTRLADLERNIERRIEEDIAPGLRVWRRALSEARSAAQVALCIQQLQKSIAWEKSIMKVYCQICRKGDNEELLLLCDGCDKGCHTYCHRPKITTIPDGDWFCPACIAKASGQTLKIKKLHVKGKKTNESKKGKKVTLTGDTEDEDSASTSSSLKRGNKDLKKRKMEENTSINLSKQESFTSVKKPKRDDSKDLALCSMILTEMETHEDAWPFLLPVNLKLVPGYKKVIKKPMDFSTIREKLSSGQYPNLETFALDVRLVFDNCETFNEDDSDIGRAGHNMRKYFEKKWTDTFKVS", "assay": "qHTS Assay for Inhibitors of BAZ2B; also: nearly all actives have a fitted effect of over 60% in size; also: potency is read from the fitted curve at half-maximal effect; tags tell the direction and shape of the fitted curve; as to activity change, negative = inhibition: % is scaled to controls: 0 for no effect and ±100 for the full control effect", "conditions": "AlphaScreen BAZ2B-H3K14Ac peptide displacement; activity change, negative = inhibition: at 114 µM (top of the series) unless noted", "procedure,_shortened": "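BAZ2B 50 nM plus b-H3(5-23)K14Ac 50 nM, PBS pH 7.4/0.01% Tween-20, 30 min RT; compound added (max 110 uM), 30 min RT; streptavidin donor/Ni-chelate acceptor beads 10 ug/mL final, 20 min dark; AlphaScreen read.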"}
{"compound": "CC(=O)N1N=C(c2cccc([N+](=O)[O-])c2)OC1c1ccc(Cl)cc1Cl", "note": "(stereo unspecified)", "Potency": "inconclusive: 25.1 µM [inhibitor, single point]"}
{"compound": "c1ccc(-c2nnc(-c3c[nH]c4ccccc34)nc2-c2ccccc2)cc1", "Potency": "inconclusive: 89.1 µM [inhibitor, single point]"}
{"compound": "CCc1ccc(Nc2nnc(SCC(=O)c3ccc4c(c3)NC(=O)CO4)s2)cc1", "Potency": "inconclusive: 79.4 µM [inhibitor, partial curve]"}
{"compound": "CCOc1ccccc1/C=C(/NC(=O)c1ccccc1)C(=O)NC(C)c1ccccc1", "note": "(stereo unspecified)", "activity change, negative = inhibition": "inactive: -1.37%"}
{"compound": "O=C(NC(=S)Nc1ccc(CN2CCOCC2)cc1)c1cc2ccccc2o1", "Potency": "inconclusive: 89.1 µM [inhibitor, single point]"}
{"compound": "Cc1ccc(NC2=CC(=O)C(=O)c3ccccc32)c(C)c1", "Potency": "inconclusive: 79.4 µM [inhibitor, single point]"}
{"compound": "CCOC(=O)NC(=S)c1ccc[nH]1", "activity change, negative = inhibition": "inactive: -6.48%"}
{"compound": "CCCC[n+]1ccn(-c2nc3c([N+](=O)[O-])cccc3n2C)c1", "Potency": "inconclusive: 89.1 µM [inhibitor, single point]"}
{"compound": "C[C@@H]1CCC[C@H](C)N1Cc1nc(Cc2ccccc2Cl)no1", "Potency": "inconclusive: 70.8 µM [inhibitor, single point]"}
{"compound": "Cc1cccc(C)c1-n1c(C)cc(/C=N/NC(=O)c2ccncc2)c1C", "Potency": "inconclusive: 70.8 µM [inhibitor, single point]"}
{"compound": "O=C(CNc1cccc2ccccc12)N/N=C/c1ccc([N+](=O)[O-])o1", "Potency": "inconclusive: 39.8 µM [inhibitor, full curve]"}
{"compound": "Cc1ccc2[nH]c3c(c2c1)CN(C(=O)CN1CCN(C(=O)c2ccco2)CC1)CC3", "activity change, negative = inhibition": "inactive: -19.2%"}
{"compound": "COc1ccc(Br)c2c1-c1nc(NC(=O)c3ccccc3SC)sc1C2", "activity change, negative = inhibition": "inactive: -13.3%"}
{"compound": "COc1ccc(N2CCN(C(=O)Cn3nnc(-c4ccc(OC)c(OC)c4)n3)CC2)cc1", "Potency": "inconclusive: 100 µM [inhibitor, single point]"}
{"compound": "O=S(=O)(c1ccccc1)c1nc(-c2cccc(Cl)c2)oc1NCc1ccccc1", "Potency": "inconclusive: 2 µM [inhibitor, full curve, poor fit]"}
{"compound": "CCOc1ccc(N2CC(c3nc4ccccc4n3CCCOc3ccc(OC)cc3)CC2=O)cc1", "note": "(stereo unspecified)", "Potency": "inconclusive: 79.4 µM [inhibitor, partial curve]"}
{"compound": "COc1cccc(Cc2nc3ccccc3nc2SCC(=O)N2CCc3ccccc32)c1", "Potency": "inconclusive: 89.1 µM [inhibitor, single point]"}
{"compound": "CN(Cc1ccco1)C(=O)c1c[nH]c2ccc(S(=O)(=O)Nc3ccc4c(c3)OCCO4)cc2c1=O", "Potency": "inconclusive: 56.2 µM [inhibitor, single point]"}
{"compound": "COc1ccc(NC(=O)Cn2c(=O)n(-c3ccc(Cl)cc3)c(=O)c3c(C)c(C(=O)N(C)C)sc32)cc1Cl", "activity change, negative = inhibition": "inactive: -0.819%"}
{"compound": "COc1ccc(/C=C2\\SC(=S)N(C(C(=O)O)c3ccccc3)C2=O)c(OC)c1", "note": "(stereo unspecified)", "Potency": "inconclusive: 31.6 µM [inhibitor, partial curve]"}
{"compound": "CCC(C)NC(=O)N[C@@H](CCSC)C(=O)OC", "note": "(stereo partly specified)", "activity change, negative = inhibition": "inactive: 8.45%"}
{"compound": "Cc1ccc(CSc2nc(=O)c3c(C)cc(C)nc3n2C2CC2)cc1", "activity change, negative = inhibition": "inactive: 17.7%"}
{"compound": "CCCOc1ccc(/C(O)=C2/C(=O)C(=O)N(CCCn3ccnc3)C2c2cccnc2)cc1", "note": "(stereo unspecified)", "Potency": "inconclusive: 89.1 µM [inhibitor, single point]"}
{"compound": "COc1ccc(CCNC(=O)CN2CCC(C(N)=O)CC2)cc1", "activity change, negative = inhibition": "inactive: 12.9%"}
{"compound": "O=C(C1CCN(CCCc2ccccc2)CC1)N1CCCCC1", "Potency": "inconclusive: 89.1 µM [inhibitor, single point]"}
{"compound": "Nc1nc(CN2CCN(Cc3ccccc3)CC2)nc(N2CCCc3ccccc32)n1", "Potency": "inconclusive: 50.1 µM [inhibitor, partial curve]"}
{"compound": "CC(CN1CCN(C)CC1)OC(=O)c1ccccc1Cl", "note": "(stereo unspecified)", "Potency": "inconclusive: 89.1 µM [inhibitor, single point]"}
{"compound": "CCc1nnc(N2C(=N)SCC2=O)s1", "Potency": "active: 79.4 µM"}
{"compound": "O=S(=O)(c1cccc2c(S(=O)(=O)N3CCCC3)cccc12)N1CCCC1", "activity change, negative = inhibition": "inactive: 2.26%"}
{"compound": "O=C(CN1CCC(O)(c2cccc(C(F)(F)F)c2)CC1)NCCc1ccccc1", "Potency": "inconclusive: 89.1 µM [inhibitor, single point]"}
{"compound": "CCOc1ccc(C(NC(=O)/C=C/c2ccco2)c2ccc(OC)c(OC)c2)cc1", "note": "(stereo unspecified)", "Potency": "inconclusive: 70.8 µM [inhibitor, single point]"}
{"compound": "Cc1cccc(Cl)c1OCCCCn1ccnc1", "Potency": "inconclusive: 89.1 µM [inhibitor, single point]"}
{"compound": "CCn1c(CSCc2ccc(F)cc2)nnc1SCC(=O)N1CCN(c2ccccc2)CC1", "Potency": "inconclusive: 89.1 µM [inhibitor, single point]"}
{"compound": "Cc1ccccc1Cn1cnc2c([N+](=O)[O-])c(C)c(C)cc21", "Potency": "inconclusive: 89.1 µM [inhibitor, single point]"}
{"compound": "COC(=O)c1c(NC(=O)c2ccc(S(=O)(=O)N3CCCCC3C)cc2)sc2c1CCN(C(C)C)C2", "note": "(stereo unspecified)", "activity change, negative = inhibition": "inactive: 0.0582%"}
{"compound": "Cc1ccc(C(C)C)c(OCCCN(C)Cc2ccccc2)c1", "Potency": "inconclusive: 89.1 µM [inhibitor, single point]"}
{"compound": "CCN(CC)S(=O)(=O)c1ccc(C(=O)Nc2ccc3c(c2)OCO3)cc1", "Potency": "inconclusive: 70.8 µM [inhibitor, single point]"}
{"compound": "COc1ccccc1CNc1ncccc1[N+](=O)[O-]", "Potency": "inconclusive: 79.4 µM [inhibitor, single point]"}
{"compound": "COc1ccc(NC(C)=O)cc1S(=O)(=O)Nc1ccc(OCc2ccccc2)cc1", "Potency": "inconclusive: 79.4 µM [inhibitor, single point]"}
{"compound": "COc1ccc(-c2nc(CCNC(=O)c3cc(OC)c(OC)c(OC)c3)cs2)cc1", "activity change, negative = inhibition": "inactive: 3.03%"}
{"compound": "COc1ccc(N2CCN(C(=O)c3cc(=O)c4ccc(C)cc4o3)CC2)cc1", "Potency": "inconclusive: 70.8 µM [inhibitor, single point]"}
{"compound": "Cc1noc(NS(=O)(=O)c2ccc(NC(=O)c3ccc(Cl)c(S(=O)(=O)N(C)c4ccccc4)c3)cc2)c1C", "Potency": "active: 44.7 µM"}
{"compound": "CCCOc1ccc(-c2nc(-c3ccc(N)cc3)cs2)cc1", "Potency": "inconclusive: 20 µM [inhibitor, partial curve]"}
{"compound": "Cc1ccc(NC(=O)c2cccs2)cc1S(=O)(=O)Nc1cccc(Cl)c1", "activity change, negative = inhibition": "inactive: -32.6%"}
{"compound": "Cc1cc(NC(c2cccnc2)c2ccc3cccnc3c2O)no1", "note": "(stereo unspecified)", "Potency": "active: 7.94 µM"}
{"compound": "O=C(CSc1oc(-c2ccco2)nc1S(=O)(=O)c1ccc(Cl)cc1)c1ccccc1", "activity change, negative = inhibition": "inactive: 15.2%"}
{"compound": "Nc1cnccc1C(=O)O", "Potency": "inconclusive: 79.4 µM [inhibitor, single point]"}
{"compound": "CCCC(=O)N(C)c1nnc(-c2ccc(OC)cc2)s1", "activity change, negative = inhibition": "inactive: -3.23%"}
{"compound": "Cc1ccc(Nc2nnc(SCC(=O)NCCN3C(=O)CSC3=O)s2)cc1C", "activity change, negative = inhibition": "inactive: 3.64%"}
{"compound": "O=C1CCN(CCc2ccccc2)CCN1[C@H](CSc1ccccc1)c1ccccc1", "Potency": "inconclusive: 44.7 µM [inhibitor, partial curve]"}
{"compound": "Cc1nc2c(C(=O)Nc3ccc(N4CCCC(O)C4)cc3)snc2c(=O)[nH]1", "note": "(stereo unspecified)", "Potency": "inconclusive: 79.4 µM [inhibitor, single point]"}
{"compound": "O=C(CSc1nnnn1C1CCCCC1)NCCc1ccccc1", "activity change, negative = inhibition": "inactive: 7.33%"}
{"compound": "Cc1ccc(C(=O)N/C(=C/c2ccc(N(C)C)cc2)C(=O)NCC2CCCO2)cc1", "note": "(stereo unspecified)", "activity change, negative = inhibition": "inactive: -3.98%"}
{"compound": "Cc1cc(=O)[nH]c(N/N=C/c2c[nH]c3ccccc23)n1", "activity change, negative = inhibition": "inactive: 18.7%"}
{"compound": "O=C(NCc1ccc2c(c1)OCO2)C1CC(c2ccccc2O)=NO1", "note": "(stereo unspecified)", "Potency": "inconclusive: 89.1 µM [inhibitor, single point]"}
{"compound": "CCC(C(=O)NCCc1ccc(Cl)cc1)n1nc(C)c2c(C)n(-c3ccccc3)nc2c1=O", "note": "(stereo unspecified)", "activity change, negative = inhibition": "inactive: -11.1%"}
{"compound": "Cc1cc2ccc3ccccc3c2cc1CN(C)C", "Potency": "inconclusive: 79.4 µM [inhibitor, single point]"}
{"compound": "Cc1cccc(CS(=O)(=O)Cc2ccc(C(=O)NCc3ccc(Cl)cc3)o2)c1", "activity change, negative = inhibition": "inactive: 3.93%"}
{"compound": "Fc1ccccc1OCCCN1CCOCC1", "Potency": "inconclusive: 89.1 µM [inhibitor, single point]"}
{"compound": "N#CCSc1nnc(SCC#N)s1", "Potency": "inconclusive: 89.1 µM [inhibitor, partial curve]"}
{"compound": "COc1cccc2c(Nc3ccccc3C)cc(C)nc12", "activity change, negative = inhibition": "inactive: -37.1%"}
{"compound": "CC1CCCN(S(=O)(=O)c2ccc(C(=O)Nc3nnc(C4CC4)o3)cc2)C1", "note": "(stereo unspecified)", "Potency": "active: 35.5 µM"}
{"compound": "CCCn1nc(C(=O)Nc2nc(-c3ccccn3)cs2)c2ccccc2c1=O", "Potency": "inconclusive: 89.1 µM [inhibitor, single point]"}
{"compound": "CCOc1ccc(S(=O)(=O)NCCC(=O)N2CCN(c3ccc(OC)cc3)CC2)cc1", "Potency": "inconclusive: 35.5 µM [inhibitor, partial curve]"}
{"compound": "Cc1ccc2nc(/C(C#N)=C/c3ccc(-c4cccc(Cl)c4)o3)[nH]c2c1", "Potency": "inconclusive: 79.4 µM [inhibitor, partial curve]"}
{"compound": "COc1ccc(-c2nnc(SC(=O)N3c4ccccc4Sc4ccccc43)o2)cc1", "Potency": "inconclusive: 79.4 µM [inhibitor, single point]"}
{"compound": "Cc1csc(NC(=O)C(Cc2ccccc2)n2cccc2)n1", "note": "(stereo unspecified)", "Potency": "inconclusive: 70.8 µM [inhibitor, single point]"}
{"compound": "Cc1cc(N2CCOCC2)ccc1/C=C1\\NC(=O)N(Cc2ccccc2F)C1=O", "activity change, negative = inhibition": "inactive: -12.3%"}
{"compound": "CC(C)CN(CC(C)C)C(=O)Cc1coc2ccc3ccccc3c12", "Potency": "inconclusive: 17.8 µM [inhibitor, full curve, poor fit]"}
{"compound": "Cc1cc(C(=O)N2CCCC(Nc3ccc(F)cc3)C2)c(C)o1", "note": "(stereo unspecified)", "Potency": "inconclusive: 79.4 µM [inhibitor, single point]"}
{"compound": "O=C1CCCC/C1=C/Nc1ccc(S(=O)(=O)Nc2ncccn2)cc1", "Potency": "inconclusive: 89.1 µM [inhibitor, single point]"}
